{"source": "paper PMC4336329", "about": "(PLoS ONE, 2015)", "note": "Hit rate of the full screen: of about 310,000 compounds, about 2,200 (0.71%) showed an effect of 50% or more. Effects have a minus sign here. This is one part of the list. Where a SMILES comes first, the peptide text is derived from it. [ ]: non-standard residue; d: D form. The star is where a group is joined. ξ: configuration not given here. Cbz = O=C(OCc1ccccc1)*; ξL = CC(C)CC(N)C(=O)O; ξP = O=C(O)C1CCCN1"}
{"target": "human ether-à-go-go-related gene (hERG) potassium channel (human, UniProt Q12809)", "sequence (Q12809 whole entry, looked up)": "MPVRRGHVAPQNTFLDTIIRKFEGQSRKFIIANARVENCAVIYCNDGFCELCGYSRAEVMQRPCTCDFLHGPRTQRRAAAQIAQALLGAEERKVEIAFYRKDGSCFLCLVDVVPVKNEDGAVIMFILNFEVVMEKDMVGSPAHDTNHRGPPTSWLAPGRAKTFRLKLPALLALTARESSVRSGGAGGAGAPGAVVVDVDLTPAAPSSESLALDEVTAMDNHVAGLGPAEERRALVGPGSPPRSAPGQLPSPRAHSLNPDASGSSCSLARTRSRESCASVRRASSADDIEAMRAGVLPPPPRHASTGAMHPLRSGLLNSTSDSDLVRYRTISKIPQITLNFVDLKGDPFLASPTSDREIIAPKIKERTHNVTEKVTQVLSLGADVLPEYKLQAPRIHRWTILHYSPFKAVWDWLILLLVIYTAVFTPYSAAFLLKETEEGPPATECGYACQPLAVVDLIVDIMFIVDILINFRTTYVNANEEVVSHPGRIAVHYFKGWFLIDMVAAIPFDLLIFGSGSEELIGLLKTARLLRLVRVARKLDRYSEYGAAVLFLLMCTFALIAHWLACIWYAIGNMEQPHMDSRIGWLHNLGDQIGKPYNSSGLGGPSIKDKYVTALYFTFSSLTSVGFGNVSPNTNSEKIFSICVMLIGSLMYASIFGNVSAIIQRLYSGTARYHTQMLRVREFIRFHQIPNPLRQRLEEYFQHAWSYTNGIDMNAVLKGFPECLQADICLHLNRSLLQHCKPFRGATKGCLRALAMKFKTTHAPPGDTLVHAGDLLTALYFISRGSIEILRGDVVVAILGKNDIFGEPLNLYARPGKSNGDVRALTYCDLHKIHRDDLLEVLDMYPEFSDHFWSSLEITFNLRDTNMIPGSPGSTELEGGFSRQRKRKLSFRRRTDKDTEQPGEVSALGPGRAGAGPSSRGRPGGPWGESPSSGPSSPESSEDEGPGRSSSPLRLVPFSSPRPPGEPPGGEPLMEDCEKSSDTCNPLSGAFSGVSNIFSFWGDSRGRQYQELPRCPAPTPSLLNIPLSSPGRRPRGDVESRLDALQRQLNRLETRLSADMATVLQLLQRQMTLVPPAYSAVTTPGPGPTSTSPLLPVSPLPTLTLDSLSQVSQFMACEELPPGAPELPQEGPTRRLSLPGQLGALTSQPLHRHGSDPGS", "assay": "primary screen, population patch clamp on CHO cells stably expressing hERG", "units": {"hERG current change (%, negative = inhibition) at 1uM": "%"}}
{"smiles": "COc1cc2nc(=S)n3[nH]c(CCn4nc(C)cc4C)nc3c2cc1OC", "hERG current change (%, negative = inhibition) at 1uM": 12.3}
{"smiles": "CN1CCc2c(sc3c2C(=O)NC(c2ccc(-c4cccc(Cl)c4)o2)N3)C1", "note": "(stereo not shown)", "hERG current change (%, negative = inhibition) at 1uM": 1.07}
{"smiles": "COc1ccccc1CN(C)C(=O)c1cccc(S(=O)(=O)N2CCCC2)c1", "hERG current change (%, negative = inhibition) at 1uM": 2.41}
{"smiles": "Cc1cccc(-[n+]2c(-c3cccc(Br)c3)[nH]c3nc4ccccc4nc32)c1", "hERG current change (%, negative = inhibition) at 1uM": 13.2}
{"smiles": "O=[N+]([O-])c1ccc(C(O)C23CN4CN(CN(C4)C2)C3)cc1", "note": "(stereo not shown)", "hERG current change (%, negative = inhibition) at 1uM": 15.9}
{"smiles": "CC(C)CC(NC(=O)C1CCCN1C(=O)[C@@H](C)NC(=O)OCc1ccccc1)C(=O)NCC(N)=O", "note": "(stereo partly shown) (Cbz-[dA][ξP][ξL]G-NH2)", "hERG current change (%, negative = inhibition) at 1uM": 9.32}
{"smiles": "COc1ccc(NS(=O)(=O)c2cc(NC(=O)c3cc(F)c(F)c(F)c3F)ccc2N2CCCC2)cc1", "hERG current change (%, negative = inhibition) at 1uM": 8.93}
{"smiles": "Cc1ccc(S(=O)(=O)/N=C/c2ccc(N(C)C)cc2)cc1", "hERG current change (%, negative = inhibition) at 1uM": 15.8}
{"smiles": "CCC(C(=O)NC1CCCC1)N(C(=O)Cn1nnc(-c2ccc(C)o2)n1)c1ccc(OC)cc1", "note": "(stereo not shown)", "hERG current change (%, negative = inhibition) at 1uM": 5.86}
{"smiles": "CC1(NC(=O)c2ccccc2)CCN(CCCc2ccccc2)C1=O", "note": "(stereo not shown)", "hERG current change (%, negative = inhibition) at 1uM": 10.9}
{"smiles": "COC(=O)c1cc(NC(=O)CN(c2ccc3c(c2)OCO3)S(C)(=O)=O)ccc1Cl", "hERG current change (%, negative = inhibition) at 1uM": 4.48}
{"smiles": "CCOC(=O)c1c(C=O)c2ccccc2n1Cc1ccccc1", "hERG current change (%, negative = inhibition) at 1uM": 10.9}
{"smiles": "COc1ccc(/C(C)=N/NC(=O)CN(c2ccc(OC)cc2)S(=O)(=O)c2ccccc2)cc1", "hERG current change (%, negative = inhibition) at 1uM": 14.7}
{"smiles": "Cc1ccc(-c2nc(SCC(=O)Nc3cc(S(=O)(=O)N4CCCCC4)ccc3Cl)n[nH]2)cc1", "hERG current change (%, negative = inhibition) at 1uM": 10.2}
{"smiles": "CCOc1ccccc1Nc1nnc(C)c(=O)[nH]1", "hERG current change (%, negative = inhibition) at 1uM": 9.41}
{"smiles": "Cn1c(O)c(N=NC(=O)CNC(=O)c2ccco2)c2ccccc21", "hERG current change (%, negative = inhibition) at 1uM": 10.5}
{"smiles": "O=C(N/C(=C\\c1cccc(Br)c1)C(=O)N1CCCCC1)c1ccco1", "hERG current change (%, negative = inhibition) at 1uM": 8.69}
{"smiles": "CC1(C)OC(=O)C(=Cc2ccc[nH]2)C(=O)O1", "hERG current change (%, negative = inhibition) at 1uM": 5.85}
{"smiles": "COc1ccccc1CCc1nnc(CCC(=O)NC(C)Cc2cccnc2)o1", "note": "(stereo not shown)", "hERG current change (%, negative = inhibition) at 1uM": 6.99}
{"smiles": "Cc1ccc(C(=O)Nc2ccc(CN3CCCCC3)cc2)c(C)c1", "hERG current change (%, negative = inhibition) at 1uM": -24.5}
{"smiles": "O=C(COc1cccc(Cl)c1)Nc1ccc(N2CCOCC2)cc1", "hERG current change (%, negative = inhibition) at 1uM": 19.9}
{"smiles": "O=C(COc1ccc([N+](=O)[O-])cc1)NNC(=O)c1cccnc1", "hERG current change (%, negative = inhibition) at 1uM": 14.3}
{"smiles": "COc1ccc(OC)c(/C=N\\NC(=O)c2ccc(COc3ccc(C)cc3[N+](=O)[O-])o2)c1", "hERG current change (%, negative = inhibition) at 1uM": 17.4}
{"smiles": "CNc1nc(SCC(=O)OC)nc(N2CCOCC2)n1", "hERG current change (%, negative = inhibition) at 1uM": 9.12}
{"smiles": "O=C1CCc2cc(S(=O)(=O)NC3CCCCC3)ccc2N1", "hERG current change (%, negative = inhibition) at 1uM": -0.715}
{"smiles": "OC1(c2cccnc2)CCN(Cc2nnnn2Cc2ccccc2)CC1", "hERG current change (%, negative = inhibition) at 1uM": 9.19}
{"smiles": "COC(=O)C1=C(c2cccc(C#N)c2)C[C@@H]2CC[C@H]1N2C(=O)NCCOc1ccccc1Cl", "hERG current change (%, negative = inhibition) at 1uM": 13.4}
{"smiles": "Cl.O=C1CC(c2ccccc2)CC2=C1CN(C1CCCCC1)CN2", "note": "(stereo not shown)", "hERG current change (%, negative = inhibition) at 1uM": 17.9}
{"smiles": "O=C(N/C(=C\\c1ccco1)C(=O)N1CCC(O)CC1)c1ccccc1", "hERG current change (%, negative = inhibition) at 1uM": 19.2}
{"smiles": "CC(Cc1cccs1)NC(=O)Nc1ccc(F)cc1", "note": "(stereo not shown)", "hERG current change (%, negative = inhibition) at 1uM": 21.4}
{"smiles": "CCC(C)NC(=O)NC(=O)CSc1nnc(-c2ccccc2F)n1C1CC1", "note": "(stereo not shown)", "hERG current change (%, negative = inhibition) at 1uM": 3.07}
{"smiles": "Cc1cc(=O)[nH]c(SCCOc2ccc3c(c2)CCC3)n1", "hERG current change (%, negative = inhibition) at 1uM": 11.7}
{"smiles": "Cc1cccc(-n2c(=O)[nH]c3c(C(N)=O)nc(-c4ccccc4Cl)nc32)c1", "hERG current change (%, negative = inhibition) at 1uM": 6.62}
{"smiles": "O=C1C=C(c2ccc(-c3ccccc3)cc2)C[C@@H](c2ccc(Cl)cc2)C1", "hERG current change (%, negative = inhibition) at 1uM": 15.9}
{"smiles": "CCn1c(=O)c(C(=O)CN2CCCc3ccccc32)c(N)n(Cc2ccccc2)c1=O", "hERG current change (%, negative = inhibition) at 1uM": -1.39}
{"smiles": "CC(=O)N(/N=C/c1ccc(C)cc1)c1nc(CCl)cs1", "hERG current change (%, negative = inhibition) at 1uM": 2.73}
{"smiles": "CC(CNCc1ccc2c(c1)OCO2)NCc1ccc2c(c1)OCO2", "note": "(stereo not shown)", "hERG current change (%, negative = inhibition) at 1uM": -17.1}
{"smiles": "COc1ccc(C(CC(=O)[O-])NS(=O)(=O)c2ccc(C)cc2)cc1.[Na+]", "note": "(stereo not shown)", "hERG current change (%, negative = inhibition) at 1uM": -8.47}
{"smiles": "COc1ccc(C2SCCN2S(=O)(=O)c2ccc(NC(C)=O)cc2)cc1", "note": "(stereo not shown)", "hERG current change (%, negative = inhibition) at 1uM": 6.12}
{"smiles": "Cc1cc(C)c2oc(-c3ccc(Cl)c(NC(=O)c4ccc(C#N)cc4F)c3)nc2c1", "hERG current change (%, negative = inhibition) at 1uM": -3.25}
{"smiles": "O=C(O)C1CC=CCC1C(=O)N1CCN(c2nc(-c3ccccc3Cl)c3cc(Br)ccc3n2)CC1", "note": "(stereo not shown)", "hERG current change (%, negative = inhibition) at 1uM": 10.5}
{"smiles": "O=C(Nc1ccc(-c2ccc3nncn3n2)cc1)C1CCCC1", "hERG current change (%, negative = inhibition) at 1uM": 6.28}
{"smiles": "CCOC(=O)C1CCN(CC(=O)Nc2ccc(S(=O)(=O)N3CCC(C)CC3)cc2)CC1", "hERG current change (%, negative = inhibition) at 1uM": 12.3}
